In ChEMBL document CHEMBL5316264, “Identification of N- and C-3-Modified Laudanosoline Derivatives as Novel Influenza PAN Endonuclease Inhibitors” (J Med Chem, 2023):
The source made the active and inactive calls. The calls are words filed in the database; no cut-off is given here.

What was measured:
Influenza A virus [1] = conditions: H1N1/A/WSN/33, MDCK, 48 h
Influenza A virus [2] = conditions: H1N1(A/PR/8/34), MDCK, 48 h
Influenza A virus [3] = format: functional, organism-based; conditions: H1N1/A/WSN/1933, MDCK, dose 5-20 µM, time 24.0 hrs
Influenza A virus [4] = format: functional, organism-based; conditions: H1N1/A/WSN/1933, MDCK, dose 5-20 µM, time 24.0 hrs; remark: listed apart in the source
Influenza A virus [5] = format: functional, organism-based; conditions: H1N1/A/WSN/1933, MDCK, dose 5-20 µM, time 24.0 hrs; remark: listed apart in the source
Influenza A virus [6] = format: functional, organism-based; conditions: H1N1/A/WSN/1933, A549, dose 10.0 µM, time 48.0 hrs
Influenza A virus [7] = format: functional, organism-based; conditions: H1N1/A/PR/8/34, MDCK, dose 2.5-10 µM, time 72.0 hrs

Work on `CCOC(=O)[C@@H]1Cc2cc(O)c(O)cc2[C@H](Cc2ccc(O)c(O)c2)N1C(=O)c1ccccc1Cl` yielded an EC50 (Influenza A virus [1]) of 3.21 µM.
With `CCCCCOC(=O)[C@@H]1Cc2cc(O)c(O)cc2[C@H](Cc2ccc(O)c(O)c2)N1C(=O)c1ccccc1Cl` the EC50 (Influenza A virus [1]) was > 20 µM.
In the case of `O=C(NC1CCCCC1)[C@@H]1Cc2cc(O)c(O)cc2[C@H](Cc2ccc(O)c(O)c2)N1C(=O)c1ccccc1Cl`, the EC50 (Influenza A virus [1]) is reported as > 20 µM.
With `CCCCOC(=O)[C@@H]1Cc2cc(O)c(O)cc2[C@H](Cc2ccc(O)c(O)c2)N1C(=O)c1ccccc1Cl` the EC50 (Influenza A virus [1]) was > 20 µM.
With `COC(=O)[C@@H]1Cc2cc(O)c(O)cc2[C@H](Cc2ccc(O)c(O)c2)N1C(=O)c1cccc(Br)c1` the EC50 (Influenza A virus [1]) was 3.83 µM.
`O=C(Nc1ccccc1)[C@@H]1Cc2cc(O)c(O)cc2[C@H](Cc2ccc(O)c(O)c2)N1C(=O)c1ccccc1Cl` showed an EC50 (Influenza A virus [1]) of 15.6 µM.
With `COC(=O)[C@@H]1Cc2cc(O)c(O)cc2[C@H](Cc2ccc(O)c(O)c2)N1C(=O)CNC(C)=O` the EC50 (Influenza A virus [1]) was > 20 µM.
In the case of `CCCNC(=O)[C@@H]1Cc2cc(O)c(O)cc2[C@H](Cc2ccc(O)c(O)c2)N1C(=O)c1ccccc1Cl`, the EC50 (Influenza A virus [1]) is reported as > 20 µM.
Compound `CCC(CC)[C@H](NC(C)=O)[C@@H]1[C@H](O)[C@@H](C(=O)O)C[C@H]1NC(=N)N` [PERAMIVIR ANHYDROUS] has an EC50 (Influenza A virus [2]) of 0.98 µM.
`C=CC(=O)N1[C@H](C(=O)OC)Cc2cc(O)c(O)cc2[C@@H]1Cc1ccc(O)c(O)c1` gave an EC50 (Influenza A virus [1]) of 5.36 µM.
`COC(=O)[C@@H]1Cc2cc(O)c(O)cc2[C@H](Cc2ccc(O)c(O)c2)N1C(=O)c1c(Cl)cccc1Cl` gave an EC50 (Influenza A virus [1]) of 5.25 µM.
In the case of `CNC(=O)[C@@H]1Cc2cc(O)c(O)cc2[C@H](Cc2ccc(O)c(O)c2)N1C(=O)c1ccccc1Cl`, the EC50 (Influenza A virus [1]) is reported as > 20 µM.
`O=C(O[C@@H]1Cc2c(O)cc(O)cc2O[C@@H]1c1cc(O)c(O)c(O)c1)c1cc(O)c(O)c(O)c1` [EPIGALOCATECHIN GALLATE] showed an EC50 (Influenza A virus [1]) of 30.4 µM.
`COC(=O)[C@@H]1Cc2cc(O)c(O)cc2[C@H](Cc2ccc(O)c(O)c2)N1C(=O)c1ccc(Cl)cc1Cl` showed an EC50 (Influenza A virus [1]) of 4.76 µM.
In the case of `COC(=O)CNC(=O)[C@@H]1Cc2cc(O)c(O)cc2[C@H](Cc2ccc(O)c(O)c2)N1C(=O)c1ccccc1Cl`, the EC50 (Influenza A virus [1]) is reported as 3.88 µM.
For `CCNC(=O)[C@@H]1Cc2cc(O)c(O)cc2[C@H](Cc2ccc(O)c(O)c2)N1C(=O)c1ccccc1Cl`, the EC50 (Influenza A virus [1]) was > 20 µM.
For `COC(=O)[C@@H]1Cc2cc(O)c(O)cc2[C@H](Cc2ccc(O)c(O)c2)N1C(=O)c1ccncc1`, the EC50 (Influenza A virus [1]) was > 20 µM.
`CCCN(CCC)C(=O)[C@@H]1Cc2cc(O)c(O)cc2[C@H](Cc2ccc(O)c(O)c2)N1C(=O)c1ccccc1Cl` was tested, and the EC50 (Influenza A virus [1]) was > 20 µM.
In the case of `COC(=O)[C@@H]1Cc2cc(O)c(O)cc2[C@H](Cc2ccc(O)c(O)c2)N1C(=O)c1cccc(C(F)(F)F)c1`, the EC50 (Influenza A virus [1]) is reported as 8.58 µM.
Work on `CCCCCCC(=O)N1[C@H](C(=O)OC)Cc2cc(O)c(O)cc2[C@@H]1Cc1ccc(O)c(O)c1` yielded an EC50 (Influenza A virus [1]) of 16.5 µM.
Compound `COC(=O)[C@@H]1Cc2cc(O)c(O)cc2[C@H](Cc2ccc(O)c(O)c2)N1C(=O)c1ccccc1C(F)(F)F` has an EC50 (Influenza A virus [1]) of 9.13 µM.
In the case of `CCCCCCNC(=O)[C@@H]1Cc2cc(O)c(O)cc2[C@H](Cc2ccc(O)c(O)c2)N1C(=O)c1ccccc1Cl`, the EC50 (Influenza A virus [1]) is reported as > 20 µM.
`COC(=O)COC(=O)[C@@H]1Cc2cc(O)c(O)cc2[C@H](Cc2ccc(O)c(O)c2)N1C(=O)c1ccccc1Cl` showed an EC50 (Influenza A virus [1]) of 2.87 µM.
`O=C(Nc1cccnc1)[C@@H]1Cc2cc(O)c(O)cc2[C@H](Cc2ccc(O)c(O)c2)N1C(=O)c1ccccc1Cl` was tested, and the EC50 (Influenza A virus [1]) was > 20 µM.
In the case of `COC(=O)[C@@H]1Cc2cc(O)c(O)cc2[C@H](Cc2ccc(O)c(O)c2)N1C(=O)c1ccc2ccccc2c1`, the EC50 (Influenza A virus [1]) is reported as 2.89 µM.
Compound `COC(=O)[C@@H]1Cc2cc(O)c(O)cc2[C@H](Cc2ccc(O)c(O)c2)N1C(=O)c1cccc([N+](=O)[O-])c1` has an EC50 (Influenza A virus [1]) of 19.4 µM.
`COC(=O)[C@@H]1Cc2cc(O)c(O)cc2[C@H](Cc2ccc(O)c(O)c2)N1C(=O)c1ccc(F)cc1` gave an EC50 (Influenza A virus [1]) of 3.01 µM.
Work on `COC(=O)[C@@H]1Cc2cc(O)c(O)cc2[C@H](Cc2ccc(O)c(O)c2)N1C(=O)c1ccccc1[N+](=O)[O-]` yielded an EC50 (Influenza A virus [1]) of 11 µM.
With `O=C(Nc1ccncc1)[C@@H]1Cc2cc(O)c(O)cc2[C@H](Cc2ccc(O)c(O)c2)N1C(=O)c1ccccc1Cl` the EC50 (Influenza A virus [1]) was 2.02 µM and the EC50 (Influenza A virus [2]) was 2.56 µM.
In the case of `COC(=O)[C@@H]1Cc2cc(O)c(O)cc2[C@H](Cc2ccc(O)c(O)c2)N1C(=O)c1ccc(C(F)(F)F)cc1`, the EC50 (Influenza A virus [1]) is reported as 9.35 µM.
`CN(C)C(=O)[C@@H]1Cc2cc(O)c(O)cc2[C@H](Cc2ccc(O)c(O)c2)N1C(=O)c1ccccc1Cl` gave an EC50 (Influenza A virus [1]) of 12.7 µM.
`COC(=O)[C@@H]1Cc2cc(O)c(O)cc2[C@H](Cc2ccc(O)c(O)c2)N1C(=O)C1CCCCC1` gave an EC50 (Influenza A virus [1]) of 18.9 µM.
In the case of `O=C(Oc1ccccc1)[C@@H]1Cc2cc(O)c(O)cc2[C@H](Cc2ccc(O)c(O)c2)N1C(=O)c1ccccc1Cl`, the EC50 (Influenza A virus [1]) is reported as 1.35 µM.
Work on `CN1CCc2cc(O)c(O)cc2C1Cc1ccc(O)c(O)c1` (racemic) yielded an EC50 (Influenza A virus [1]) of 46.8 µM.
In the case of `COC(=O)[C@@H]1Cc2cc(O)c(O)cc2[C@H](Cc2ccc(O)c(O)c2)N1C(=O)c1ccc(Cl)cc1`, the EC50 (Influenza A virus [1]) is reported as 2.53 µM.
With `COC(=O)[C@@H]1Cc2cc(O)c(O)cc2[C@H](Cc2ccc(O)c(O)c2)N1C(=O)c1ccc(O)cc1` the EC50 (Influenza A virus [1]) was > 20 µM.
For `COC(=O)[C@@H]1Cc2cc(O)c(O)cc2[C@H](Cc2ccc(O)c(O)c2)N1C(=O)c1ccccc1Br`, the EC50 (Influenza A virus [1]) was 3.42 µM.
`COC(=O)[C@@H]1Cc2cc(O)c(O)cc2[C@H](Cc2ccc(O)c(O)c2)N1C(=O)c1ccccc1F` showed an EC50 (Influenza A virus [1]) of 2.77 µM.
`COC(=O)[C@@H]1Cc2cc(O)c(O)cc2[C@H](Cc2ccc(O)c(O)c2)N1C(=O)c1ccccc1Cl` showed an EC50 (Influenza A virus [1]) of 1.82 µM and an EC50 (Influenza A virus [2]) of 2.01 µM.
In the case of `COC(=O)[C@@H]1Cc2cc(O)c(O)cc2[C@H](Cc2ccc(O)c(O)c2)N1C(=O)c1cccc(O)c1`, the EC50 (Influenza A virus [1]) is reported as > 20 µM.
With `CCCOC(=O)[C@@H]1Cc2cc(O)c(O)cc2[C@H](Cc2ccc(O)c(O)c2)N1C(=O)c1ccccc1Cl` the EC50 (Influenza A virus [1]) was 0.88 µM, the EC50 (Influenza A virus [2]) was 1.28 µM and the Activity (Influenza A virus [3]) was “Active”. For the same compound, the Activity (Influenza A virus [4]) was “Active”, the Activity (Influenza A virus [5]) was “Dose-Dependent Effect” and the Activity (Influenza A virus [6]) was “Active”. The Activity (Influenza A virus [7]) was “Dose-Dependent Effect”.
For `COC(=O)[C@@H]1Cc2cc(O)c(O)cc2[C@H](Cc2ccc(O)c(O)c2)N1C(=O)c1cccc(F)c1`, the EC50 (Influenza A virus [1]) was 2.86 µM.
`COC(=O)[C@@H]1Cc2cc(O)c(O)cc2[C@H](Cc2ccc(O)c(O)c2)N1C(=O)c1ccc(Br)cc1` gave an EC50 (Influenza A virus [1]) of 3.96 µM.
`COC(=O)[C@@H]1Cc2cc(O)c(O)cc2[C@H](Cc2ccc(O)c(O)c2)N1C(=O)c1ccccc1` was tested, and the EC50 (Influenza A virus [1]) was 5.28 µM.
With `COC(=O)[C@@H]1Cc2cc(O)c(O)cc2[C@H](Cc2ccc(O)c(O)c2)N1C(=O)c1cccnc1` the EC50 (Influenza A virus [1]) was > 20 µM.
In the case of `O=C(OCCO)[C@@H]1Cc2cc(O)c(O)cc2[C@H](Cc2ccc(O)c(O)c2)N1C(=O)c1ccccc1Cl`, the EC50 (Influenza A virus [1]) is reported as > 20 µM.
Work on `O=C(O)[C@@H]1Cc2cc(O)c(O)cc2[C@H](Cc2ccc(O)c(O)c2)N1C(=O)c1ccccc1Cl` yielded an EC50 (Influenza A virus [1]) of 19.4 µM.
Work on `O=C1c2c(O)c(=O)ccn2N([C@@H]2c3ccccc3SCc3c2ccc(F)c3F)[C@@H]2COCCN12` [BALOXAVIR] yielded an EC50 (Influenza A virus [1]) of 0.00852 µM.
`COC(=O)[C@@H]1Cc2cc(O)c(O)cc2[C@H](Cc2ccc(O)c(O)c2)N1C(=O)c1cccc(Cl)c1` showed an EC50 (Influenza A virus [1]) of 2.42 µM.
